Reference: PubChem BioAssay AID1963576 (National Center for Advancing Translational Sciences (NCATS), 2024)
Hit rate of the full screen: of about 46,000 compounds, about 60 (0.1%) were called active. Inconclusive means that the source gave no clear call. Such entries were picked first, then a sample of the others. Calls come from the whole dose curve; as a rule, active = well fitted inhibition curve with a large enough effect; inconclusive = small, poorly fitted or top-dose-only effect; inactive = no such curve, though single readings can be large or run the other way. No potency is given beside an inconclusive call; the fits are too rough.

Assay: Primary qHTS assay for Inhibitors of ovarian cancer metastasis using an organotypic tumor microenvironment (TME) model.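 For activity change, negative = inhibition: plate controls were DMSO wells for no effect and tomatine positive control wells for full effect.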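 For potency: count of GFP cancer cells still attached after washing and fixation.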 Note: nearly all actives have a fitted effect of over 65% in size.
Details: SKOV3ip1-GFP adhesion/invasion on 3D omental model, fluorescence; activity change, negative = inhibition: at 45.8 µM (top of the series); series mostly up to 45.8 µM
Summary of the method: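 qHTS, 4-pt dose (0.36-46 umol/L); SKOV3ip1-GFP, 1,200 cells/well, no FBS; primary omental fibroblast/mesothelial co-culture 48 h pre-grown; 2 h RT + 16 h 37 C; PBS wash, 4% PFA; GFP count 488/509 nm.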
Potency is the fitted concentration of half-maximal effect; tags give direction and shape of the fitted curve.

Row | Compound | Potency | activity change, negative = inhibition | outcome
1 | O=C(NCc1ccccc1Br)C1CCCN(C(=O)N2CCOc3ccccc32)C1 (configuration not stated) | inconclusive [inhibitor, single point] | – | –
2 | CCOC(=O)c1[nH]c2ccccc2c1NC(=O)c1ccccc1OCC | inconclusive [inhibitor, full curve, poor fit] | – | –
3 | CC(C)(C)OC(=O)N1CCC(c2c(C(=O)NCCN3CCC(Cc4ccccc4)CC3)cnn2-c2cccc(Cl)c2)CC1 | inconclusive [inhibitor, single point] | – | –
4 | O=C(Nc1ccccc1F)c1nc(S(=O)(=O)Cc2ccccc2F)ncc1Cl | active: 3.16 µM | – | –
5 | CCCNC(=O)c1ccc2c(c1)N=C(C)c1c(C)ccc(C)c1S2 | – | inactive: -5.82% | –
6 | O=C1CCCc2cc(S(=O)(=O)NCC3CCC(C(=O)Nc4ccc(Cl)cc4)CC3)ccc2N1 (configuration not stated) | inconclusive [inhibitor, single point] | – | –
7 | CCCCCCOc1ccc(/C=C/C(=O)Nc2sc3c(c2C(=O)OC)CCC3)cc1OC | inconclusive [inhibitor, single point] | – | –
8 | CCC(C)NC(=O)c1cc2cc(S(=O)(=O)N3CCCCC3)ccc2n1C (configuration not stated) | inconclusive [inhibitor, partial curve, poor fit] | – | –
9 | O=C(NCC(c1ccc2c(c1)OCO2)N1CCOCC1)c1ccccc1 (configuration not stated) | inconclusive [inhibitor, single point] | – | –
10 | COC(=O)COc1ccc(C2C(C(=O)OC)=C(C)NC3=C2C(=O)c2ccccc23)cc1OC (configuration not stated) | inconclusive [inhibitor, partial curve, poor fit] | – | –
11 | COc1cc(OC)cc(C(=O)Nc2cc3c(cc2N2CCCCC2)n(C)c(=O)n3C)c1 | – | inactive: 6.31% | –
12 | Cc1cccc(S(=O)(=O)Nc2cccc(-c3ccc(N4CCCCC4)nn3)c2)c1 | – | – | inactive
13 | COc1ccc(C2C=C(c3ccc(F)cc3)Nc3nc(-c4ccc(Cl)cc4)nn32)cc1 (configuration not stated) | inconclusive [inhibitor, single point] | – | –
14 | COc1ccc(-n2nc3c(N4CCC(C(=O)NCc5cccc(F)c5)CC4)nnc(C)c3c2C)cc1 | – | inactive: -25% | –
15 | Cc1ccc(-c2nc3ccccc3[nH]2)cc1NC(=O)COc1ccccc1[N+](=O)[O-] | inconclusive [inhibitor, single point] | – | –
16 | O=c1c2ccccc2nc(/C=C/c2cccc3ccccc23)n1-c1ccc(F)cc1F | inconclusive [inhibitor, full curve, poor fit] | – | –
17 | Cc1cccc(CN2C(=O)c3ccccc3Sc3ccc(C(=O)NCc4ccco4)cc32)c1 | inconclusive [inhibitor, single point] | – | –
18 | CCS(=O)(=O)c1ncc(Cl)c(C(=O)N2CCN(c3ccc(OC)cc3)CC2)n1 | inconclusive [inhibitor, full curve, poor fit] | – | –
19 | Cc1ccc2sc(N(Cc3cccnc3)C(=O)CCS(=O)(=O)c3ccccc3)nc2c1C | inconclusive [inhibitor, single point] | – | –
20 | c1cc(N[C@@H]2CCNC2)nc(-c2cnc3ccc(-c4cn[nH]c4)cn23)c1 | – | inactive: 3.26% | –
21 | O=C(Cn1cc(C(=O)C2CCCCC2)c2ccccc21)Nc1ccccc1Cl | – | inactive: 7.72% | –

Row | Compound | Potency | activity change, negative = inhibition | outcome
22 | Cc1ccc(-c2cn3c(n2)sc2cc(C(=O)NCCCN4CCCCCC4)ccc23)cc1 | inconclusive [inhibitor, single point] | – | –
23 | COC(=O)c1cc2oc(C)cc2n1Cc1ccccc1Cl | inconclusive [inhibitor, single point] | – | –
24 | Cc1nc2cc(-c3ccccc3)nn2c(C)c1CCC(=O)N1CCN(c2ccc(F)cc2)CC1 | – | inactive: -2.15% | –
25 | CCOc1ccc(-c2cn3c(n2)sc2cc(C(=O)NCCCN4CCCCCC4)ccc23)cc1 | inconclusive [inhibitor, single point] | – | –
26 | CCc1ccc2[nH]cc(S(=O)(=O)c3ccc(C(C)C)cc3)c(=O)c2c1 | – | inactive: -3.45% | –
27 | COc1ccc2c(CNCCc3ccccc3C)c(C(=O)O)n(Cc3ccccc3C)c2c1 | – | inactive: 1.4% | –
28 | COc1cccc(CNS(=O)(=O)c2ccc3[nH]c4c(c3c2)CCCCC4)c1 | – | – | inactive
29 | Cc1ccc(C)c(Cn2c(=O)n(CC3CCC(C(=O)N4CCOCC4)CC3)c(=O)c3sccc32)c1 (configuration not stated) | inconclusive [inhibitor, single point] | – | –
30 | CCOCCc1nn2c(=O)cc(COC(=O)c3ccccc3NC(=O)c3ccccc3F)nc2s1 | – | inactive: 1.83% | –
31 | CCc1ccc(CNc2ncc(-c3cccc(OC)c3)n2C)cc1 | active: 5.62 µM | – | –
32 | O=S(=O)(Nc1nc2n(n1)C(c1ccc(F)cc1)C=C(c1ccc(Cl)cc1)N2)c1ccccc1 (configuration not stated) | – | inactive: 6.11% | –
33 | COc1ccc(C(=O)Nc2cccc(OCc3cc(=O)n4c5c(sc4n3)CCCC5)c2)cc1OC | – | inactive: 3.82% | –
34 | COc1cccc(NC(=O)Nc2ccc3nc(N4CCN(C)CC4)cc(C)c3c2)c1 | inconclusive [inhibitor, single point] | – | –
35 | CCOC(=O)c1c(C)n(-c2ccccc2)c2ccc(OC(=O)c3cccc(Cl)c3)cc12 | – | inactive: 3.45% | –
36 | Cc1ccccc1C(=O)Nc1nc(-c2ccc(Br)cc2)ns1 | inconclusive [inhibitor, single point] | – | –
37 | COc1ccc(OC)c(C2c3c(-c4ccc(Br)cc4)n[nH]c3C(=O)N2c2ccc(Cl)cc2)c1 (configuration not stated) | inconclusive [inhibitor, single point] | – | –
38 | CC(C)(C)C(=O)Nc1ccc(-c2nc3ccccc3s2)cc1 | inconclusive [inhibitor, single point] | – | –
39 | CCc1cnc2c(c1SCc1c(F)cccc1Cl)c(=O)n(C)c(=O)n2C | inconclusive [inhibitor, single point] | – | –
40 | Cc1ccc(CCNC(=O)CCCn2c(=O)c3ccccc3n(CC(=O)Nc3cc(Cl)ccc3C)c2=O)cc1 | inconclusive [inhibitor, single point] | – | –
41 | CCCCCNC(=O)c1cc2c(=O)n3ccccc3nc2n1C | inconclusive [inhibitor, single point] | – | –
42 | O=C(CCCn1c2ccccc2c(=O)c2ccccc21)Nc1cccc(Cl)c1 | inconclusive [inhibitor, single point] | – | –
